How the values were obtained:
[1] = system: human Notch2 EGF deletion and point mutants; assay: FACS epitope mapping with full-length hNotch2 deletion and point mutants; assay type: binding; settings: HEK 293, 10 μg/ml
Method: Point mutations were made within EGF10 of Notch2 fusion proteins and binding of 59R1 to each EGF10 mutant was determined by FACS analysis. HEK-293 cells were transiently transfected with the indicated Notch expression plasmid and GFP as a transfection control. GFP positive cells indicated expression of the transgene. The 59R1 Fab antibody was added to the cells at 10 μg/ml and detected by PE-conjugated goat anti-human (Jackson Immunochemicals).
FACS analysis of HEK-293 cells transiently transfected with the indicated Notch expression plasmid and GFP as a transfection control. GFP positive cells indicate expression of the transgene. Anti-Notch2 (59M70) was added at 20 μg/ml and detected by PE-conjugated goat anti-mouse (Caltag, #3004-4). 59R1 (IgG2) was added to the cells at 2 μg/ml and detected by PE-conjugated goat anti-human Fc gamma specific (Jackson Immunochemicals). Ligand binding was determined by incubation of the cells with human DLL4 extracellular domain (ECD) fused to rabbit IgG constant region at 5 μg/ml and detected by PE-conjugated donkey anti-rabbit.
A comparison analysis of the EGF 10 regions of human Notch1, Notch2, and Notch4 and the EGF 9 region of human Notch3 (the equivalent of EGF 10 in the other Notch receptors) was performed to determine likely binding sites for 59R1 (FIG. 14A). […] Binding to the mutants was determined by FACS analysis (FIGS. 14B and 14C). […]

[2] = target: T1, binding of Jagged1 to human Notch2 (Homo sapiens, UniProt Q04721); assay: FACS blocking of hJagged1 ECD-Fc binding to human Notch2 on HEK-293 cells; settings: HEK-293 stably overexpressing human Notch2
T1 construct: expressed in transfected cells; host or cells: HEK-293, stably transfected with human Notch2
T1 sequence (Q04721 26-2471): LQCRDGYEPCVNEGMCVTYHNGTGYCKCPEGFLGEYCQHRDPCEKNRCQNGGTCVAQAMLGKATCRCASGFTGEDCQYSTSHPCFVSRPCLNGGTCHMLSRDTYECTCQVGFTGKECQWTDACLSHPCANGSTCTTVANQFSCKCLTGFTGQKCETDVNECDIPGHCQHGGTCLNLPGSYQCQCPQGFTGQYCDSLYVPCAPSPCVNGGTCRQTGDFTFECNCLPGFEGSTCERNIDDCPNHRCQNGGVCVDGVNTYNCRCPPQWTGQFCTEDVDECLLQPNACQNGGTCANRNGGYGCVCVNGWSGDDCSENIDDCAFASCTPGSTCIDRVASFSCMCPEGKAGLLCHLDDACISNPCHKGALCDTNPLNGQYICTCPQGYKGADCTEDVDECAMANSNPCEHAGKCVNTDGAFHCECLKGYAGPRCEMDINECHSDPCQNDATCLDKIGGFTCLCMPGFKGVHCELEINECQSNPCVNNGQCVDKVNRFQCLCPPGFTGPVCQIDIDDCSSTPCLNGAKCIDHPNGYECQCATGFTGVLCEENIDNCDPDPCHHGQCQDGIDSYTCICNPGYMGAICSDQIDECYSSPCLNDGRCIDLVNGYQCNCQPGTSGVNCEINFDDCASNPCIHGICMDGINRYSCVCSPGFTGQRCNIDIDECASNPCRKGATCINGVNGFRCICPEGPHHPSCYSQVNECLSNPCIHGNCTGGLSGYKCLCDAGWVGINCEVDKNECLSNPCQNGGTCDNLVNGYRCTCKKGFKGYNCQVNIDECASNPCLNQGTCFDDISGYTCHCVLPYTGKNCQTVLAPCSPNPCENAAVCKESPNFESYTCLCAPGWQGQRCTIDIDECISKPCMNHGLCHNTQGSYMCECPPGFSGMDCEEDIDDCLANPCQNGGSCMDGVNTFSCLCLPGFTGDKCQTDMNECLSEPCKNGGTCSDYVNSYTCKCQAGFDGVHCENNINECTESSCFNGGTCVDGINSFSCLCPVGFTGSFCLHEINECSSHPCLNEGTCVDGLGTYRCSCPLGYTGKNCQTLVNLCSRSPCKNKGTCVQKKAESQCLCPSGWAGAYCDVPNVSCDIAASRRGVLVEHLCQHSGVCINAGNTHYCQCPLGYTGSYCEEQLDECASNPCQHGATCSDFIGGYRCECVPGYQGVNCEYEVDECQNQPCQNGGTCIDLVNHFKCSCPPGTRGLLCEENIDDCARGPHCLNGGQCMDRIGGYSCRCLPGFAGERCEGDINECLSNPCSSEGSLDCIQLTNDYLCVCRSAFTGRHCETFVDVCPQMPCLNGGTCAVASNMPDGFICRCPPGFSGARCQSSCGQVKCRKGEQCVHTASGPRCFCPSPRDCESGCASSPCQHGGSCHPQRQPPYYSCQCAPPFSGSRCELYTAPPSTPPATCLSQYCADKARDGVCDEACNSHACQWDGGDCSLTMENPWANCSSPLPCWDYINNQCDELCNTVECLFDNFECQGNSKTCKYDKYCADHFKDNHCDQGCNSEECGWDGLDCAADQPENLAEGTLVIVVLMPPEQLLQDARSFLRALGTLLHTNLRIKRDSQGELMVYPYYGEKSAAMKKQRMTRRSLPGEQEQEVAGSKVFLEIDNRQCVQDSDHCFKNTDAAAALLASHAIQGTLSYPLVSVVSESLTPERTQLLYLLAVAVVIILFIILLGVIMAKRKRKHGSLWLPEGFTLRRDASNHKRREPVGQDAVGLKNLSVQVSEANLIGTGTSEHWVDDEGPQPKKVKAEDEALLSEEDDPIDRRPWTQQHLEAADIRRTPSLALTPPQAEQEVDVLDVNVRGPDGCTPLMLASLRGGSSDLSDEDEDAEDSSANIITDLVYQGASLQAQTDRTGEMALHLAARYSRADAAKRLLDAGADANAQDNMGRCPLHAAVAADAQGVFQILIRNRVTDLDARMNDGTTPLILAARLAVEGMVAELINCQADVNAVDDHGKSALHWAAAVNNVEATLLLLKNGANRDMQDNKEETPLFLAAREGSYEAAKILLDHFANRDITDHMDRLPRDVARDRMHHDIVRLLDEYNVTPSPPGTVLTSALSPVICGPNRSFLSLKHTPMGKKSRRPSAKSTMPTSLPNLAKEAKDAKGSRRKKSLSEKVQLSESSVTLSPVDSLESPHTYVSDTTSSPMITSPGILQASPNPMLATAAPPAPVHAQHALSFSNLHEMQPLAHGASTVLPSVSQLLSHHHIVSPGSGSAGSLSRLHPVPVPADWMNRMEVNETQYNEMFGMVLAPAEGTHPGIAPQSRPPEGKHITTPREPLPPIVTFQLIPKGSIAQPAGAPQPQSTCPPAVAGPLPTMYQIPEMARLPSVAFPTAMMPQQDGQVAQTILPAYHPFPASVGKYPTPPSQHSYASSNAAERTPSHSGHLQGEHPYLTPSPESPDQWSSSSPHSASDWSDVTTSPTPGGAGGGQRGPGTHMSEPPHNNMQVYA
Method: (§1) A particular Fab (59R1) was identified that bound the human Notch2 receptor and blocked binding of Jagged1 to human Notch2. Binding of the 59R1 Fab to human Notch2 was verified by FACS assay using a stable human cell line HEK-293 which overexpressed human Notch2 (hN2) (FIG. 1A). Fab binding was detected by phycoerythrin (PE)-conjugated goat anti-human Fab (Jackson Immunochemicals). […] Ligand binding and blocking was determined by incubating hJagged 1 extracellular domain (ECD) fused to human Fc constant region with the cells and Fabs selected from the phage library and using PE-conjugated goat anti-human Fc gamma specific antibodies (Jackson Immunochemicals) for detection.
Highly hydrophobic CDRs have the potential, in certain instances, to allow for unfavorable, non-specific binding by an antibody. […] Heavy chain CDR3 affinity maturation was conducted by allowing restricted changes from the parental sequence (GIFFAI; SEQ ID NO:7) as shown in FIG. 1E. Improved variants were isolated by screening them for improved JAG1 blocking ability as shown in FIG. 1F (indicated with arrows). Briefly, Fabs (1 and 10 μg/ml) were mixed with hJAG1-rb Fc (preclustered 5 μg/ml to 2 μl/ml PE-conjugated donkey anti-rabbit) and then added to hNotch2 stably transfected 293 cells. hJAG1 binding was then assessed using flow cytometry. […]

[3] = system: recombinant human Notch2 Fc fusion proteins (EGF repeat deletion constructs); assay: ELISA epitope mapping with human Notch2 Fc deletion constructs; assay type: binding; settings: Fab at 10 μg/ml
Method: The binding of anti-Notch2/3 antibodies to supernatant from HEK 293 cells transfected with sequences encoding recombinant human Notch2 Fc fusion proteins comprising the full length human Notch2 protein or various human Notch2 deletion constructs containing various deletions of EGF repeats one to twelve were tested by ELISA. HEK-293 cells were transiently transfected with pcDNA 3.1 (Invitrogen) with hNotch2 cDNA's encoding for the indicated amino acids fused to the constant region of human IgG (hFc). Supernatants were harvested 48 hours later. To capture hN2hfc proteins, 96 well plates were first coated with goat anti-human Fc gamma specific IgG (Jackson Immunochemicals, #109-006-098) at 100 ng per well in sodium bicarbonate buffer overnight at 4°. Plates were washed and blocked in 5% bovine serum/PBS-Tween-20. Supernatants were added to plates and incubated at room temperature for 1 hour. Plates were washed in P135-T. 59R1 Fab was added at 10 μg/ml in 5% serum/PBS-T and incubated at room temperature for 1 hour. Plates were washed in PBS-T. Fab binding was detected by goat anti-human Fab specific antibody conjugated to horseradish peroxidase (Thermo, #31414) diluted 1:5000 in 5% serum/PBS-T for 1 hour at room temperature. Plates were washed and developed with 1 Step Ultra TMB (Thermo, #34028). Plates were read on a Perkin Elmer Victor 1420 plate reader. […] (FIG. 3A).

human Notch2 = target: T2, human Notch2 (Homo sapiens, UniProt Q04721); assay: FACS binding to human Notch2 on stably transfected HEK-293 cells; settings: HEK-293 stably overexpressing human Notch2
T2 construct: expressed in transfected cells; host or cells: HEK-293, stably transfected
T2 sequence (Q04721 26-2471): as above
Method: as §1
In addition, the 59R1 IgG2 antibody was assayed for its ability to block binding of DLL4 to the human Notch 2 receptor by FACS analysis. HEK-293 cells stably overexpressing human Notch2 were incubated with the antibody at various concentration and then detected for hNotch2 binding (FIG. 1C) by PE-conjugated goat anti-human Fc gamma specific antibody, or ligand blocking activity (FIG. 1D). Ligand blocking was determined by incubating the cells with human DLL4 ECD tagged with the rabbit Fc constant region and the 59R1 antibody at a range of concentrations, and then detecting the hDLL4 by PE-conjugated donkey anti-rabbit antibody. […]

B1: 59R1 Fab: Fab from phage display that bound the human Notch2 receptor and blocked binding of Jagged1; SEQ ID NO:11 and 12 (antibody, listed as Homo sapiens, V domains shown)
VL: MKKTAIAIAVALAGFATVAQADIVLTQSPATLSLSPGERATLSCRASQSVRSNYLAWYQQKPGQAPRLLIYGASSRATGVPARFSGSGSGTDFTLTISSLEPEDFAVYYCQQYSNFPITFGQGTKVEIKR
VH: MKQSTIALALLPLLFTPVTKAQVQLVESGGGLVQPGGSLRLSCAASGFTFSSSGMSWVRQAPGKGLEWVSVIASSGSNTYYADSVKGRFTISRDNSKNTLYLQMNSLRAEDTAVYYCARGIFFAIWGQGTLVTVSSA
- FACS binding to full length Notch2 with EGF11 or EGF12 deleted [1]: retained
- blocking of hJagged1 binding to human Notch2 (FACS) [2]: good blocking activity
- ELISA binding to Notch2 Fc fusion proteins with EGF repeat deletions [3]: bound only to supernatant from cells expressing recombinant Notch2 proteins comprising EGF10
- binding to human Notch2 (FACS) (human Notch2): good binding

From patent US8226943B2, “Antibodies to notch receptors” (OncoMed Pharmaceuticals, Inc., priority 2008, dated 2012)
